24 sequences from the supplement of paper PMC11417369 can be followed below.

± gives the standard deviation of the averaged measurements. The list shows a part of the results.

The assay concerns PfAP2-I AP2 domain 3 (GST-tagged). Briefly: gcPBM binding intensity (ln(normalized median fluorescence intensity)); higher = stronger DNA binding. The essentials: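 Alexa488 anti-GST antibody, scanned at 488 nm, detected GST-tagged P. falciparum DNA-binding domains that had been expressed in E. coli and incubated for 1 h on an Agilent 4 × 180k array. The array carried primer-extended double-stranded 36-bp intergenic genomic probes and negative controls. Binding intensity is the highest Masliner-normalised natural-log median intensity across replicate spots of either orientation of each probe.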
Regarding “TTTTTTAAAAAAGTTTTCTGTATTTATATATATATA [CACACA_negctrl_site31]”, the “gcPBM binding intensity (ln)” value came to 9.275 ± 0.049. The same measure for “TCATATGTATAAATTAGTACATATTTAATGGATATA [XGTACX_site3298]”: 7.59 ± 0.44; for “ATAAATTTATCCAAGTGTACAAAGCTAACATTTTTT [XGTACX_site4399]”: 7.77 ± 0.61.

With “CATCCTATTACTTGGTGTACTATTTTATATTGAATA [XGTACX_site1050]”, the “gcPBM binding intensity (ln)” value was found to be 8.17 ± 0.52. The same measure for “ATAAACAAGACGCAACAAAGTAGAAATTAAAAATAA [CACACA_negctrl_site345]”: 7.58 ± 0.7; for “AAAAATGGAATTATCTGTACATATATAGTTTTTAAA [XGTACX_site5580]”: 7.44 ± 0.33; for “GTTTATAAAATAAGAAGTACTTTATGAGAACCATAT [XGTACX_site5789]”: 7.94 ± 0.41. Turning to “TGGTACCTTACTTTTACACACTTTTTTTTTTTTTTT [CACACA_site1557]”, the “gcPBM binding intensity (ln)” value stood at 8.35 ± 0.59. As for “TTTTGAGTAGCCTATTGTACGAACTTTTTAAATACA [XGTACX_site1224]”, the “gcPBM binding intensity (ln)” value worked out at 7.67 ± 0.4.

“CCATTTTAAATATGCACACAGATGCACTAACACATT [CACACA_site5099]”: the “gcPBM binding intensity (ln)” value came out at 10.4 ± 0.11. The same measure for “AATATATACGCATGCGCACACACAAGTGGGAAATTT [CACACA_site1786]”: 8.38 ± 0.71; for “CACCCATAAATATACACACGCACAACACAAAATAAA [CACACA_site2903]”: 8.24 ± 0.21; for “ATATATATATATACATGTACAAATGTATAACAAATG [XGTACX_site145]”: 9.02 ± 0.51.

Take “TTTTTTTACAACATTACACACAAATATTCTGTGTTA [CACACA_site5957]”: the “gcPBM binding intensity (ln)” value stood at 7.94 ± 0.76.

Turning to “AACATTTTAAAACAGACACACACCAAAAAAAAAAAA [CACACA_site257]”, the “gcPBM binding intensity (ln)” value turned out to be 8.14 ± 0.78. Regarding “AATCGTGTTCTGAATACACACTAATACAAATTTGTA [CACACA_site6058]”, the “gcPBM binding intensity (ln)” value was determined as 7.86 ± 0.7.

Take “AACAAAAATAATAATCAAATAAATAAATGAAAACAT [CACACA_negctrl_site456]”: the “gcPBM binding intensity (ln)” value was found to be 7.78 ± 0.61.

For “AGAAAATTAAAAAGAACACACAAATATATATATAAT [CACACA_site5896]”, the “gcPBM binding intensity (ln)” value was found to be 7.63 ± 0.66. The same measure for “ATATTACAACATTTTATACACACGTGATTATTAATT [CACACA_site2877]”: 7.93 ± 0.57; for “TGATACTTATGATAAATACACACTTGAAATTAAGGA [CACACA_site1152]”: 7.59 ± 0.71. The same measure for “ATGATATACGTAAACACACAAATAAAAAAAATTTAT [CACACA_site7544]”: 7.8 ± 0.47; for “TATATAGCATATTTCACACACACATAATGAATATTA [CACACA_site3546]”: 7.7 ± 0.36; for “TTAAAAAGAAAGTTCACACACATATAGATGACGGAA [CACACA_site7268]”: 7.92 ± 0.73.

Consider “TTTTTTAGTTTTTAGTGTACATAAATAAATAAATAA [XGTACX_site2843]”, for which the “gcPBM binding intensity (ln)” value was 8.29 ± 0.64.
